The other results are listed elsewhere or left out.

The test system of the experiment is HSkMC (human skeletal muscle cells). Put plainly: cytotoxicity call (relative viability < 0.9). To be noted: 10 µM.
As for `C[C@@H]1CCCCO[C@@H](CN(C)Cc2ccc(C(=O)O)cc2)[C@@H](C)CN([C@@H](C)CO)C(=O)c2cc(NS(=O)(=O)c3ccc(Cl)cc3)ccc2O1`, the cytotoxicity call was “inactive”.
Consider `C[C@H](CO)N1C[C@H](C)[C@H](CN(C)S(=O)(=O)c2ccc(Cl)cc2)Oc2ccc(NS(C)(=O)=O)cc2CC1=O`, for which the cytotoxicity call was “inactive”.
`C[C@@H]1CN([C@@H](C)CO)C(=O)c2cccc(NC(=O)c3nc4ccccc4s3)c2O[C@H]1CN(C)Cc1ccc(C(=O)Nc2ccccc2N)cc1`: the cytotoxicity call is “inactive”.
Consider `Cc1noc(C)c1NC(=O)N(C)C[C@@H]1OCCCC[C@H](C)Oc2ccc(NC(=O)Nc3cccc4ccccc34)cc2C(=O)N([C@H](C)CO)C[C@@H]1C`, for which the cytotoxicity call was “inactive”.
For `C[C@@H]1CN([C@@H](C)CO)C(=O)c2cccc(NS(=O)(=O)c3cccs3)c2O[C@H]1CN(C)Cc1ccc(-c2ccccc2)cc1`, the cytotoxicity call is “inactive”.
As to `C[C@@H](N)C1CCC(C(=O)Nc2ccncc2)CC1` (stereo not given in full), the cytotoxicity call is “inactive”.
With `Cc1nc2c(c(N3CCOCC3)n1)OCC(=O)N2`, the cytotoxicity call is “inactive”.
As to `Cc1ccc(C(=O)CCNc2ccc3c(c2)oc2ccccc23)o1`, the cytotoxicity call was “inactive”.
For `COc1ccc(NC(=O)Nc2ccc3c(c2)C(=O)N([C@H](C)CO)C[C@H](C)[C@@H](CN(C)C(=O)CCC(F)(F)F)OCCCC[C@H](C)O3)cc1`, the cytotoxicity call is “inactive”.
In the case of `C[C@@H]1CCCCO[C@@H](CN(C)C(=O)C2CCCCC2)[C@H](C)CN([C@H](C)CO)C(=O)c2cc(NC(=O)c3ccccc3)ccc2O1`, the cytotoxicity call is “inactive”.
`Cc1noc(C)c1NC(=O)N(C)C[C@H]1Oc2c(NC(=O)c3cnccn3)cccc2C(=O)N([C@@H](C)CO)C[C@@H]1C`: the cytotoxicity call was “inactive”.
As for `C[C@@H]1CN([C@@H](C)CO)C(=O)c2cc(NC(=O)c3ccncc3)ccc2O[C@@H](C)CCCCO[C@H]1CN(C)S(C)(=O)=O`, the cytotoxicity call was “inactive”.
As for `C[C@H]1CCCCO[C@H](CN(C)C(=O)c2ccccc2)[C@@H](C)CN([C@@H](C)CO)C(=O)c2cc(NC(=O)Cc3ccccc3)ccc2O1`, the entry is “inactive”; as for `CCOC(=O)CCCCCCCCCCCC[C@@H]1C=CCC1`, “inactive”; as for `COc1ccc(CN(C)C[C@H]2Oc3ccc(NC(=O)Cn4cnnn4)cc3C(=O)N([C@H](C)CO)C[C@@H]2C)cc1`, “inactive”.
With `C[C@@H]1CCCCO[C@H](CN(C)C(=O)c2ccncc2)[C@H](C)CN([C@H](C)CO)C(=O)c2cc(NS(=O)(=O)c3ccc(Cl)cc3)ccc2O1`, the cytotoxicity call was “inactive”.
Regarding `C[C@@H]1CN([C@H](C)CO)C(=O)Cc2cc(NS(C)(=O)=O)ccc2O[C@@H]1CN(C)Cc1ccc(C(=O)Nc2ccccc2N)cc1`, the cytotoxicity call is “inactive”.
With `COCC#Cc1ccc2c(c1)O[C@@H](CN(C)C(=O)Nc1ccc(OC)cc1)[C@@H](C)CN([C@H](C)CO)S2(=O)=O`, the cytotoxicity call is “inactive”.
In the case of `C[C@@H]1CCCCO[C@H](CN(C)C(=O)Nc2ccc3c(c2)OCO3)[C@@H](C)CN([C@H](C)CO)C(=O)c2cc(NC(=O)Cc3ccccc3)ccc2O1`, the cytotoxicity call was “inactive”.
With `C[C@@H]1CCCCO[C@H](CN(C)Cc2ccc(C(=O)O)cc2)[C@H](C)CN([C@H](C)CO)C(=O)c2cc(NC(=O)Nc3ccccc3)ccc2O1`, the cytotoxicity call was “inactive”.
The same measure for `C[C@@H]1CN([C@H](C)CO)C(=O)c2cc(NS(=O)(=O)c3ccc(F)cc3)ccc2O[C@H]1CN(C)S(=O)(=O)c1cccs1`: “inactive”; for `CC[C@@H]1CN(C(=O)OC)N1`: “inactive”.
In the case of `COc1ccccc1C#Cc1ccc2c(c1)O[C@H](CN(C)Cc1ccncc1)[C@H](C)CN([C@H](C)CO)S2(=O)=O`, the cytotoxicity call is “inactive”.
Turning to `C[C@@H]1CCCCO[C@H](CN(C)C(=O)NC2CCCCC2)[C@H](C)CN([C@@H](C)CO)C(=O)c2cc(NC(=O)Nc3ccc4c(c3)OCO4)ccc2O1`, the cytotoxicity call was “inactive”.
As to `C[C@H]1CN([C@@H](C)CO)C(=O)CCCn2nncc2CO[C@@H]1CN(C)S(=O)(=O)c1ccc2c(c1)OCCCO2`, the cytotoxicity call is “inactive”.
The same measure for `C[C@@H]1CN([C@@H](C)CO)C(=O)c2cc(NC(=O)Nc3ccc(C(F)(F)F)cc3)ccc2O[C@@H](C)CCCCO[C@@H]1CN(C)CC1CCCCC1`: “inactive”; for `O=C1CN(N=Cc2ccc([N+](=O)[O-])o2)C(=O)N1`: “inactive”.
In the case of `C[C@H](CO)N1C[C@H](C)[C@H](CN(C)S(C)(=O)=O)Oc2c(cccc2N(C)C)C1=O`, the cytotoxicity call is “inactive”.
Take `CS(=O)(=O)O.CSc1ccc2c(c1)C(N1CCN(C)CC1)Cc1ccccc1S2` (stereo not given): the cytotoxicity call was “active”.
With `Cc1noc(C)c1S(=O)(=O)N(C)C[C@@H]1Oc2ccc(NC(=O)NC3CCCCC3)cc2CC(=O)N([C@H](C)CO)C[C@H]1C`, the cytotoxicity call is “inactive”.

For the origin of these results see the antibiotic and cytotoxicity screens of Wong et al. (2023).
